From US4605658A (priority 1983, dated 1986)
In brackets after ≈: the same amount, converted by molar mass.

Key:
Vaccina virus = experiment: microbe, parasite or virus in culture; assay type: cell-based; details: Orthopoxvirus vaccinia, PRK, read-out: Minimum inhibitory concentration
Polio virus-1 = experiment: microbe, parasite or virus in culture; assay type: cell-based; details: HeLa, read-out: Minimum inhibitory concentration

SMILES	EC50 (Vaccina virus)	EC50 (Polio virus-1)
Nc1ncnc2c1ncn2CC(O)CO (racemic) [(RS)--DHPA, 9-(2,3-dihydroxypropyl)adenine, reference compound]	30 to 70 µg/mL (≈ 143 to 335 µM)	> 400 µg/mL
COC(=O)C(O)Cn1cnc2c(N)ncnc21 (racemic) [Compound 1, methylester of 3-(adenin-9-yl)-2-hydroxypropanoic acid]	7 µg/mL (≈ 29.5 µM)	> 400 µg/mL
CCOC(=O)C(O)Cn1cnc2c(N)ncnc21 (racemic) [Compound 2]	3 µg/mL (≈ 11.9 µM)	> 400 µg/mL
CCCOC(=O)C(O)Cn1cnc2c(N)ncnc21 (racemic) [Compound 3]	3 to 10 µg/mL (≈ 11.3 to 37.7 µM)	> 400 µg/mL
CC(C)OC(=O)C(O)Cn1cnc2c(N)ncnc21 (racemic) [Compound 4]	3 µg/mL (≈ 11.3 µM)	> 400 µg/mL
CCCCOC(=O)C(O)Cn1cnc2c(N)ncnc21 (racemic) [Compound 5]	3 to 30 µg/mL (≈ 10.7 to 107 µM)	> 400 µg/mL
CCC(C)OC(=O)C(O)Cn1cnc2c(N)ncnc21 (racemic) [Compound 6]	3 µg/mL (≈ 10.7 µM)	> 400 µg/mL
CC(C)COC(=O)C(O)Cn1cnc2c(N)ncnc21 (racemic) [Compound 7]	3 to 30 µg/mL (≈ 10.7 to 107 µM)	> 400 µg/mL
CC(C)CCOC(=O)C(O)Cn1cnc2c(N)ncnc21 (racemic) [Compound 8]	10 to 30 µg/mL (≈ 34.1 to 102 µM)	> 400 µg/mL
CCCCCCCCOC(=O)C(O)Cn1cnc2c(N)ncnc21 (racemic) [Compound 9]	7 µg/mL (≈ 20.9 µM)	> 100 µg/mL
COCCOC(=O)C(O)Cn1cnc2c(N)ncnc21 (racemic) [Compound 10]	30 µg/mL (≈ 107 µM)	> 400 µg/mL
Nc1ncnc2c1ncn2CC(O)C(=O)OC1CCCCC1 (racemic) [Compound 11]	3 µg/mL (≈ 9.83 µM)	> 100 µg/mL
Nc1ncnc2c1ncn2C[C@H](O)CO [(S)--DHPA, 9-(2,3-dihydroxypropyl)adenine, reference compound]	30 to 70 µg/mL (≈ 143 to 335 µM)	> 400 µg/mL
